Among the data in PubChem BioAssay AID1645887 (National Center for Advancing Translational Sciences (NCATS), 2021) are activation values, retold here.

Where “and” joins values, the source holds several entries; their conditions need not be identical. Identical values can stand only once. The campaign covered roughly 16,000 compounds. About 40 (0.2%) were called active. Another 1% or so got no clear call; they are omitted. Calls come from the whole dose curve; as a rule, active = well fitted activation curve with a large enough effect; inconclusive = small, poorly fitted or top-dose-only effect, or another doubt; inactive = no such curve, though single readings can be large or run the other way. This is one part of the list.
% is set by controls: 0 for no effect and ±100 for the full control effect.

UniProt Q8WZA2, sequence (Q8WZA2 whole entry, looked up): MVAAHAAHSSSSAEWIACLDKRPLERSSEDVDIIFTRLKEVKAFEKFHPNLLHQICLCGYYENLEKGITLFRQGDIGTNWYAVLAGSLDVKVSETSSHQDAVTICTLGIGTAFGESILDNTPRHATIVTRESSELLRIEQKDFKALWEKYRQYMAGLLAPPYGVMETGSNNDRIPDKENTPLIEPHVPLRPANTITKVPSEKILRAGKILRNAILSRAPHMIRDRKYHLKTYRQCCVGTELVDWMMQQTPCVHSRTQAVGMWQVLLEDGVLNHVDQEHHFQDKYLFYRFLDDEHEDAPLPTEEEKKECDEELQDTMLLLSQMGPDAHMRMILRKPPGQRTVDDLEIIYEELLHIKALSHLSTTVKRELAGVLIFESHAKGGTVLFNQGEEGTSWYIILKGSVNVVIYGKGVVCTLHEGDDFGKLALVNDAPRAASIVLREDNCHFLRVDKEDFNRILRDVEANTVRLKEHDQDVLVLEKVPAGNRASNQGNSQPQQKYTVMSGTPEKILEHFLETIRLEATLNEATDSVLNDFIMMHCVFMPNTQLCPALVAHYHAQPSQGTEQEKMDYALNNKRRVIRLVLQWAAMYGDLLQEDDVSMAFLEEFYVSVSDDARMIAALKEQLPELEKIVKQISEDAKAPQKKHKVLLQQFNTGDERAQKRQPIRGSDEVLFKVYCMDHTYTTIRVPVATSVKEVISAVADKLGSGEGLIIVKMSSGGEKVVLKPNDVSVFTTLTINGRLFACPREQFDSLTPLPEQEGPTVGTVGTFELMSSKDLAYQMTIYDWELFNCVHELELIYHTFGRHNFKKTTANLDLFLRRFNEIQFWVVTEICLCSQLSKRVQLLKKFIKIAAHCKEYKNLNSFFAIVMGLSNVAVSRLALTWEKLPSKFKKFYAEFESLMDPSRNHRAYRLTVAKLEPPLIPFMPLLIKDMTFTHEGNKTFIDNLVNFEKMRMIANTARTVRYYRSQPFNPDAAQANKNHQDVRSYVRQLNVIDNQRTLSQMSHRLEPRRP

This assay deals with Rap guanine nucleotide exchange factor 4 (Homo sapiens) (UniProt Q8WZA2). Nature of the assay: Validation qHTS for agonist of cAMP-regulated guanine nucleotide exchange factor 4 (EPAC2).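 Note: exchange makes BODIPY-GDP fluorescence drop when released from Rap1B; series mostly up to about 150 µM.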 The note with it: EPAC2 Rap1B BODIPY-GDP exchange, fluorescence; activation: stronger effect = higher value. A digest of the protocol:
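Signal normalized against 6.5 mM cAMP as agonist control. Mix of EPAC2 (100 nM), RAP1B-BODIPY-GDP (250 nM) and GDP (50 uM) was read kinetically at 480/540 nm, every 5 min over 30 min, after 5 min room-temperature incubation with compound.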
On the technique in general: Quantitative high-throughput screening tests each substance at several concentrations.
`COc1cccc(-c2ccc3ncnc(N(C)C)c3c2)c1`: the activation was inactive: -1.09%.

Regarding `C=CC(C1=CC(=O)C(OC)=CC1=O)c1ccc(O)cc1` (stereo not drawn), the activation was inactive: 9.29%.

On to `CC1=CCC(C(C)(C)O)CC1` (stereo not drawn), for which the activation was inactive: -15.6%.

In the case of `CCCCCC1C(=O)CCC1CC(=O)O` (stereo not drawn), the activation was inactive: -4.42%.

For `CC(C)CCC[C@@H](C)[C@H]1CC[C@H]2[C@@H]3CC=C4C[C@@H](O)CC[C@]4(C)[C@H]3CC[C@]12C`, the activation is inactive: -8.56%.

Turning to `CC(C)C[C@H](NC(=O)[C@H](Cc1ccccc1)NC(=O)CNC(=O)CNC(=O)[C@@H](N)Cc1ccc(O)cc1)C(=O)N[C@@H](CCCN=C(N)N)C(=O)N[C@@H](CCCN=C(N)N)C(=O)N[C@@H](CCC(N)=O)C(=O)N[C@@H](Cc1ccccc1)C(=O)N[C@@H](CCCCN)C(=O)N[C@H](C(=O)N[C@H](C(=O)N[C@H](C(=O)O)[C@@H](C)O)C(C)C)C(C)C`, the activation is inactive: 4.04%.

Regarding `COc1ccc(-c2nc3cnc(N4CCOCC4)nc3n(-c3ccc(OC)cc3)c2=O)cc1`, the activation is inactive: -15%.

For `O=C(/C=C/c1ccccc1)OCc1ccccc1`, the activation is inactive: -6.76%.

In the case of `Nc1ccn([C@@H]2O[C@H](CO)[C@@H](O)[C@H]2O)c(=O)n1`, the activation was inactive: 12.9%.

Take `O=C(CN1CCN(Cc2ccc3c(c2)OCO3)CC1)N1c2ccccc2Sc2ccccc21`: the activation was inactive: 11.6%.

For `COc1ccc(Oc2ncc3nc(-c4ccc(F)cc4)c(=O)n(C4CC4)c3n2)cc1`, the activation was inactive: -4.93%.

With `CC1O[C@@H](Oc2c(-c3ccc(O)c(O)c3)oc3cc(O)cc(O)c3c2=O)C(O)C(O)C1O` (stereo partly drawn), the activation was inactive: -15.4%.

Turning to `N[C@@H](Cc1ccc(F)cc1)C(=O)O`, the activation is inactive: -32.3%.

Take `O=C(Oc1ccccc1)N1CCC2(CCCN(c3ccccn3)C2)CC1`: the activation was inactive: 3.91%.

For the compound `Cn1c2ccccc2c(=O)c2ccc(F)cc21`, the activation is inactive: -2.58%.

For the compound `C[C@@H](CSc1ccc(Br)cc1)CN1CC[C@H](O)CCC1=O`, the activation is inactive: -11.2%.

As to `O=C(O)[C@@H]1C[C@H](CP(=O)(O)O)CCN1`, the activation is inactive: -20.5%.

`CC1=CC2C(=O)c3cccc(O)c3C(=O)C2C(O)=C1` (stereo not drawn): the activation was inactive: 13.1%.

As to `O=P(O)(O)C(O)(Cc1cccnc1)P(=O)(O)O`, the activation is inactive: -5.12%.

`O=C(O)c1cc(O)c(O)c(O)c1`: the activation was inactive: 7.85% and inactive: -6.38%.

For the compound `CC(C)=CCc1c(O)cc(C)oc1=O`, the activation was inactive: -17.8%.

As to `Nc1ccc(N=Nc2ccccc2)c(N)n1`, the activation is inactive: -1.32% and inactive: 18.7%.

For `CCN(CC)C(=O)N1CCN(C)CC1`, the activation was inactive: 3.46% and inactive: 14.5%.
